{
  "source": "the supplement of paper PMC8728848",
  "test_in_all_cases": "glycan array binding signal (z-score within array); higher = stronger binding",
  "conditions_in_all_cases": "glycan notation: IUPAC condensed, linker removed",
  "key": {"[1]": {"target": "Gal(b1-3)GlcNAc(b1-2)Man(a1-3)[Gal(b1-3)GlcNAc(b1-2)Man(a1-6)]Man(b1-4)GlcNAc(b1-4)GlcNAc", "method_in_brief": "(§1)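 The binding signal is a Z-score computed within each array and averaged over linkers. Arrays of the same protein sequence at different concentrations or buffers were also averaged together. Data originate from 3228 arrays in the Consortium for Functional Glycomics database, kept only where the protein sequence was available.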"}, "[2]": {"target": "Gal(b1-3)GlcNAc(b1-2)Man(a1-3)[Gal(b1-3)GlcNAc(b1-2)Man(a1-6)]Man(b1-4)GlcNAc(b1-4)[Fuc(a1-6)]GlcNAc", "method_in_brief": "as §1"}, "[3]": {"target": "Gal(b1-3)GlcNAc(b1-2)Man(a1-3)[GlcNAc(b1-4)][Gal(b1-3)GlcNAc(b1-2)Man(a1-6)]Man(b1-4)GlcNAc(b1-4)GlcNAc", "method_in_brief": "as §1"}, "[4]": {"target": "Gal(b1-3)GlcNAc(b1-2)[Gal(b1-3)GlcNAc(b1-6)]Man(a1-6)[Gal(b1-3)GlcNAc(b1-2)Man(a1-3)]Man(b1-4)GlcNAc(b1-4)GlcNAc", "method_in_brief": "as §1"}, "[5]": {"target": "Gal(b1-3)GlcNAc(b1-3)Gal(b1-3)GlcNAc", "method_in_brief": "as §1"}, "[6]": {"target": "Gal(b1-3)GlcNAc(b1-3)Gal(b1-4)Glc", "method_in_brief": "as §1"}, "[7]": {"target": "Gal(b1-3)GlcNAc(b1-3)Gal(b1-4)GlcNAc", "method_in_brief": "as §1"}, "[8]": {"target": "Gal(b1-3)GlcNAc(b1-3)Gal(b1-4)GlcNAc(b1-2)Man(a1-3)[Gal(b1-3)GlcNAc(b1-3)Gal(b1-4)GlcNAc(b1-2)Man(a1-6)]Man(b1-4)GlcNAc(b1-4)GlcNAc", "method_in_brief": "as §1"}, "[9]": {"target": "Gal(b1-3)GlcNAc(b1-3)Gal(b1-4)GlcNAc(b1-2)[Gal(b1-3)GlcNAc(b1-3)Gal(b1-4)GlcNAc(b1-6)]Man(a1-6)[Gal(b1-3)GlcNAc(b1-3)Gal(b1-4)GlcNAc(b1-2)Man(a1-3)]Man(b1-4)GlcNAc(b1-4)[Fuc(a1-6)]GlcNAc", "method_in_brief": "as §1"}, "[10]": {"target": "Gal(b1-3)GlcNAc(b1-3)Gal(b1-4)GlcNAc(b1-3)Gal(b1-4)GlcNAc(b1-2)[Gal(b1-3)GlcNAc(b1-3)Gal(b1-4)GlcNAc(b1-3)Gal(b1-4)GlcNAc(b1-6)]Man(a1-6)[Gal(b1-3)GlcNAc(b1-3)Gal(b1-4)GlcNAc(b1-3)Gal(b1-4)GlcNAc(b1-2)Man(a1-3)]Man(b1-4)GlcNAc(b1-4)[Fuc(a1-6)]GlcNAc", "method_in_brief": "as §1"}, "[11]": {"target": "Gal(b1-3)GlcNAc(b1-3)Gal(b1-4)GlcNAc(b1-6)[Gal(b1-3)GlcNAc(b1-3)]Gal(b1-4)Glc", "method_in_brief": "as §1"}, "[12]": {"target": "Gal(b1-3)GlcNAc(b1-3)Gal(b1-4)[Fuc(a1-3)]GlcNAc", "method_in_brief": "as §1"}, "[13]": {"target": "Gal(b1-3)GlcNAc(b1-3)Gal(b1-4)[Fuc(a1-3)]GlcNAc(b1-6)[Gal(b1-3)GlcNAc(b1-3)]Gal(b1-4)Glc", "method_in_brief": "as §1"}, "[14]": {"target": "Gal(b1-3)GlcNAc(b1-3)GalNAc", "method_in_brief": "as §1"}, "[15]": {"target": "Gal(b1-3)GlcNAc(b1-6)Gal(b1-4)GlcNAc", "method_in_brief": "as §1"}, "[16]": {"target": "Gal(b1-3)GlcNAc(b1-6)GalNAc", "method_in_brief": "as §1"}, "[17]": {"target": "Gal(b1-3)GlcNAc(b1-6)[Gal(b1-3)]GalNAc", "method_in_brief": "as §1"}, "[18]": {"target": "Gal(b1-3)GlcNAc6S", "method_in_brief": "as §1"}, "[19]": {"target": "Gal(b1-3)[Fuc(a1-4)]GlcNAc", "method_in_brief": "as §1"}, "[20]": {"target": "Gal(b1-3)[Fuc(a1-4)]GlcNAc(b1-2)Man", "method_in_brief": "as §1"}, "[21]": {"target": "Gal(b1-3)[Fuc(a1-4)]GlcNAc(b1-2)Man(a1-3)[Gal(b1-3)[Fuc(a1-4)]GlcNAc(b1-2)Man(a1-6)]Man(b1-4)GlcNAc(b1-4)[Fuc(a1-6)]GlcNAc", "method_in_brief": "as §1"}, "[22]": {"target": "Gal(b1-3)[Fuc(a1-4)]GlcNAc(b1-3)Gal(b1-3)[Fuc(a1-4)]GlcNAc", "method_in_brief": "as §1"}, "[23]": {"target": "Gal(b1-3)[Fuc(a1-4)]GlcNAc(b1-3)Gal(b1-4)[Fuc(a1-3)]GlcNAc", "method_in_brief": "as §1"}, "[24]": {"target": "Gal(b1-3)[Fuc(a1-4)]GlcNAc(b1-6)GalNAc", "method_in_brief": "as §1"}, "[25]": {"target": "Gal(b1-3)[GlcNAc(b1-6)]GalNAc", "method_in_brief": "as §1"}, "[26]": {"target": "Gal(b1-3)[Neu5Ac(a2-6)]GalNAc", "method_in_brief": "as §1"}, "[27]": {"target": "Gal(b1-3)[Neu5Ac(a2-6)]GlcNAc(b1-4)Gal(b1-4)Glc", "method_in_brief": "as §1"}, "[28]": {"target": "Gal(b1-3)[Neu5Ac(b2-6)]GalNAc", "method_in_brief": "as §1"}, "[29]": {"target": "Gal(b1-4)Gal", "method_in_brief": "as §1"}, "[30]": {"target": "Gal(b1-4)GalNAc(a1-3)[Fuc(a1-2)]Gal(b1-4)GlcNAc", "method_in_brief": "as §1"}, "[31]": {"target": "Gal(b1-4)GalNAc(b1-3)[Fuc(a1-2)]Gal(b1-4)GlcNAc", "method_in_brief": "as §1"}, "[32]": {"target": "Gal(b1-4)Glc", "method_in_brief": "as §1"}, "[33]": {"target": "Gal(b1-4)Glc6S", "method_in_brief": "as §1"}, "[34]": {"target": "Gal(b1-4)GlcNAc", "method_in_brief": "as §1"}, "[35]": {"target": "Gal(b1-4)GlcNAc(a1-6)Gal(b1-4)GlcNAc", "method_in_brief": "as §1"}, "[36]": {"target": "Gal(b1-4)GlcNAc(b1-2)Man", "method_in_brief": "as §1"}, "[37]": {"target": "Gal(b1-4)GlcNAc(b1-2)Man(a1-3)Man(b1-4)GlcNAc(b1-4)GlcNAc", "method_in_brief": "as §1"}},
  "note": "The other results are listed elsewhere or left out.",
  "data": [
    {"binder": "SP16664B-bot-474-25-474 (Bacteroides ovatus) (protein) CEEDIEIGNKIDESSYLASTQLSGLLLDENTNKNSSVIELRNNEYSTNVVFRLSKLPQKGVDVQIAVEESYAAIYNTIHETDFEVFPAANVKIANNGTFVLAPDDKVTPSVKVTLTAFDGMEEDKTYIVPLTVTSSTEGVTFTETSKHMVLLVQDYRNKPNTNKGEDAVQTVLYFEVNDTNPLNALEFLTESGKYFFDHIVLFAANINWDPEKQRVYLANNENVQFLLDNNDKYLQPLRKAGMKIIISILGNHDEAGVAQLSDMGAREFARELAAYCRAYNLDGVAFDDEYSNSPDLSNPWLASPSAYAGSRLMYECKAVMPEKIVSLYNLGNMYSSSLQVIDGIEPGQYCDYAVADYGGAAGPGTGMTLKQCAGMSIELRRGSGNSSESTARSRKEAGYGYYMFFALDPSLYGSQVYRCQSVCKGLYDETLVYPSYYYKKNSTEREAIN", "values": [
      {"measurement": "glycan array binding signal (z-score)", "setting": "[1]", "value": 0.238},
      {"measurement": "glycan array binding signal (z-score)", "setting": "[2]", "value": 0.482},
      {"measurement": "glycan array binding signal (z-score)", "setting": "[3]", "value": 0.138},
      {"measurement": "glycan array binding signal (z-score)", "setting": "[4]", "value": 0.525},
      {"measurement": "glycan array binding signal (z-score)", "setting": "[5]", "value": -0.39},
      {"measurement": "glycan array binding signal (z-score)", "setting": "[6]", "value": -0.23},
      {"measurement": "glycan array binding signal (z-score)", "setting": "[7]", "value": -0.418},
      {"measurement": "glycan array binding signal (z-score)", "setting": "[8]", "value": -0.246},
      {"measurement": "glycan array binding signal (z-score)", "setting": "[9]", "value": 0.052},
      {"measurement": "glycan array binding signal (z-score)", "setting": "[10]", "value": 0.528},
      {"measurement": "glycan array binding signal (z-score)", "setting": "[11]", "value": 0.146},
      {"measurement": "glycan array binding signal (z-score)", "setting": "[12]", "value": -0.407},
      {"measurement": "glycan array binding signal (z-score)", "setting": "[13]", "value": -0.257},
      {"measurement": "glycan array binding signal (z-score)", "setting": "[14]", "value": -0.248},
      {"measurement": "glycan array binding signal (z-score)", "setting": "[15]", "value": -0.428},
      {"measurement": "glycan array binding signal (z-score)", "setting": "[16]", "value": -0.355},
      {"measurement": "glycan array binding signal (z-score)", "setting": "[17]", "value": -0.087},
      {"measurement": "glycan array binding signal (z-score)", "setting": "[18]", "value": 0.202},
      {"measurement": "glycan array binding signal (z-score)", "setting": "[19]", "value": -0.27},
      {"measurement": "glycan array binding signal (z-score)", "setting": "[20]", "value": -0.44},
      {"measurement": "glycan array binding signal (z-score)", "setting": "[21]", "value": 0.47},
      {"measurement": "glycan array binding signal (z-score)", "setting": "[22]", "value": -0.485},
      {"measurement": "glycan array binding signal (z-score)", "setting": "[23]", "value": -0.238},
      {"measurement": "glycan array binding signal (z-score)", "setting": "[24]", "value": 0.134},
      {"measurement": "glycan array binding signal (z-score)", "setting": "[25]", "value": -0.351},
      {"measurement": "glycan array binding signal (z-score)", "setting": "[26]", "value": -0.588},
      {"measurement": "glycan array binding signal (z-score)", "setting": "[27]", "value": -0.513},
      {"measurement": "glycan array binding signal (z-score)", "setting": "[28]", "value": -0.124},
      {"measurement": "glycan array binding signal (z-score)", "setting": "[29]", "value": -0.186},
      {"measurement": "glycan array binding signal (z-score)", "setting": "[30]", "value": -0.481},
      {"measurement": "glycan array binding signal (z-score)", "setting": "[31]", "value": -0.546},
      {"measurement": "glycan array binding signal (z-score)", "setting": "[32]", "value": -0.328},
      {"measurement": "glycan array binding signal (z-score)", "setting": "[33]", "value": 0.2},
      {"measurement": "glycan array binding signal (z-score)", "setting": "[34]", "value": -0.243},
      {"measurement": "glycan array binding signal (z-score)", "setting": "[35]", "value": -0.245},
      {"measurement": "glycan array binding signal (z-score)", "setting": "[36]", "value": -0.192},
      {"measurement": "glycan array binding signal (z-score)", "setting": "[37]", "value": 0.323}
    ]}
  ]
}
